Patent US9103830B2, “Enzyme sensors, methods for preparing and using such sensors, and methods of detecting protease activity” (Georgia State University Research Foundation, Inc., priority 2006, dated 2015)

Experiments:
trypsin [1] = target: T1, trypsin (Bos taurus, UniProt P00760); experiment: Optical signal change / dynamic range of trypsin sensors upon trypsin digestion; format: biochemical, bovine; details: absorbance ratio 490 nm/398 nm after versus before trypsin cleavage
T1 construct: Active trypsin is produced only after trypsinogen reaches the small intestine through the common bile duct and is cleaved by enterokinase; purchased Sigma, St. Louis; host or cells: bovine pancreas
T1 sequence (P00760 24-246): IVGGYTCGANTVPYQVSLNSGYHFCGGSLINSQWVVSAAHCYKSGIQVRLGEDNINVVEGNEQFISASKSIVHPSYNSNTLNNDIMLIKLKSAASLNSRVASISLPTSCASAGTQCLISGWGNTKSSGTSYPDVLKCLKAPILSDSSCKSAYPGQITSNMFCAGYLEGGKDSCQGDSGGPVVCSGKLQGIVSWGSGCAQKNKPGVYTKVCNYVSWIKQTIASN
Procedure: Spectral Properties Protease Sensors after Protease Digestion Trypsin digestion of 15 μM EGFP-T/C1 and EGFP-T/C2 was performed by adding stock trypsin from bovine pancreas (Sigma, St. Louis) up to a final concentration of 0.02 μM in trypsin digestion buffer (10 mM Tris, 20 mM CaCl2, pH 7.4). The UV-visible spectra after trypsin digestion were measured in a 1 cm pathway cuvette at different time intervals (0, 1, 3, 5, 10, 20, 30, 60, 90 and 120 min). In order to measure fluorescence spectra of EGFP-T/C1 and EGFP-T/C2 following trypsin digestion, 0.02 μM trypsin were added to 1 μM EGFP-T/C1 and EGFP-T/C2 samples in trypsin digestion buffer (10 mM Tris, 20 mM CaCl2, pH 7.4), respectively. Fluorescence emission of trypsin sensors at 508 nm with excitation at 398 and 490 nm was recorded at different time intervals (0, 1, 3, 5, 10, 20, 30, 60, 90 and 120 min). […]
In order to evaluate designed trypsin sensors, the dynamic range calculation for optical signal change in absorbance or fluorescence upon trypsin digestion is determined by equation 1: […]
In order to evaluate designed trypsin sensors, the dynamic range calculation for absorbance change upon trypsin digestion is determined through the following equation: […]
Where A490a and A398a are the absorbances at 490 nm and 398 nm after cleavage, respectively; A490b and A398b are the absorbances at 490 nm and 398 nm before cleavage, respectively. […]

trypsin [2] = target: T1, trypsin; experiment: Steady-state kinetics of trypsin digestion of EGFP-based trypsin sensors and BAPNA (absorbance at 490 nm, Michaelis-Menten fit); format: biochemical, bovine; details: Table 4; pH 7.4, 10 mM Tris, 20 mM CaCl2

B1: EGFP-E-III-F-R197-GPARL: trypsin sensor of Table 1, cleavage linker EEEIAEAFAVFDADGNGYISAAGPARLVMTNL inserted in position 172 in EGFP (protein)
chain: MVSKGEELFTGVVPILVELDGDLNGHKFSVSGEGEGDATYGKLTLKFICTTGKLPVPWPTLVTTLTYGVQCFSRYPDHMKQHDFFKSAMPEGYVQERTIFFKDDGNYKTRAEVKFEGDTLVNRIELKGIDFKEDGNILGHKLEYNYNSHNVYIMADKQKNGIKVNFKIRHNIEEEEIAEAFAVFDADGNGYISAAGPARLVMTNLDGSVQLADHYQQNTPIGDGPVLLPDNHYLSTQSALSKDPNEKRDHIVLLEFVTAAGITLGMDELYK
With B1 the “Dynamic range (DR)” value (trypsin [1]) was 1.8034 ± 0.2855, the Km (trypsin [2]) was 4.21 ± 0.71 µM and the kcat (trypsin [2]) was 0.85 ± 0.06 s⁻¹.
